Reference: the supplement of paper PMC4967469
The IC50 comes from the fitted curve, where viability falls to half of the control; where the fit passes the top or lowest dose, that dose stands as a limit. AUC, from the same fit, is the share of area under the viability curve across the 256-fold dose range; it is 1 without any effect and falls as sensitivity rises. A top dose marked as inferred was calculated from the reported fits.

Experiments:
PD-173074 = compound: CCN(CC)CCCCNc1ncc2cc(-c3cc(OC)cc(OC)c3)c(NC(=O)NC(C)(C)C)nc2n1 [PD-173074]; assay: Viability of human cancer cell lines after 72 h of drug (GDSC screen); conditions: top dose 2 µM; top dose inferred
Method: (§1)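 Human cancer cell lines in 384-well plates, medium with 10% serum, drug for 72 h over a 256-fold dose range (nine 2-fold or five 4-fold steps up to the top dose). Adherent lines were fixed and stained with the nucleic acid dye Syto60, suspension lines read with resazurin; signal relative to control wells, capped at 0 and 100%. One two-parameter sigmoid per drug and line, fitted in a mixed model over all curves with the slope shared within a line.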

SB590885 = compound: CN(C)CCOc1ccc(-c2nc(-c3ccncc3)c(-c3ccc4c(c3)CC/C4=N\O)[nH]2)cc1 [SB590885]; assay: as above; conditions: top dose 5 µM; top dose inferred
Method: as §1

Row | Cell Line | AUC (PD-173074) | IC50 (PD-173074) [nM] | AUC (SB590885) | IC50 (SB590885) [nM]
1 | MDA-MB-415 (breast, adherent) | 0.972 | > 2000 | 0.983 | > 5000
2 | NCI-H1703 (lung adenocarcinoma, adherent) | 0.981 | > 2000 | 0.982 | > 5000
3 | WM-115 (melanoma, adherent) | 0.941 | > 2000 | 0.625 | 746
4 | OAW-42 (ovary, adherent) | 0.939 | > 2000 | 0.981 | > 5000
5 | KYSE-140 (oesophagus, adherent) | 0.984 | > 2000 | 0.968 | > 5000
6 | CHSA8926 (chondrosarcoma, adherent) | 0.968 | > 2000 | 0.961 | > 5000
7 | 451Lu (melanoma, adherent) | 0.948 | > 2000 | 0.32 | 101
8 | Jurkat (T-cell leukaemia, suspension) | 0.992 | > 2000 | 0.952 | > 5000
9 | NCI-H1623 (lung adenocarcinoma, adherent) | 0.985 | > 2000 | 0.985 | > 5000
10 | KMRC-20 (kidney, adherent) | 0.972 | > 2000 | 0.988 | > 5000
11 | ASH-3 (thyroid, adherent) | 0.988 | > 2000 | 0.987 | > 5000
12 | D-566MG (glioma, adherent) | 0.961 | > 2000 | 0.953 | > 5000
13 | HuO-3N1 (osteosarcoma, adherent) | 0.935 | > 2000 | 0.982 | > 5000
14 | HARA (lung squamous cell carcinoma, adherent) | 0.952 | > 2000 | 0.956 | > 5000
15 | LN-229 (glioma, adherent) | 0.978 | > 2000 | 0.986 | > 5000
16 | SNU-387 (liver, adherent) | 0.984 | > 2000 | 0.984 | > 5000
17 | PANC-02-03 (pancreas, adherent) | 0.962 | > 2000 | 0.976 | > 5000
18 | SF295 (glioma, adherent) | 0.955 | > 2000 | 0.95 | > 5000
19 | CAL-51 (breast, adherent) | 0.987 | > 2000 | 0.991 | > 5000
20 | CAL-120 (breast, adherent) | 0.91 | > 2000 | 0.934 | > 5000
21 | HCC1143 (breast, adherent) | 0.931 | > 2000 | 0.98 | > 5000
22 | HSC-2 (head and neck, adherent) | 0.986 | > 2000 | 0.983 | > 5000
23 | NCI-H661 (large cell lung carcinoma, adherent) | 0.979 | > 2000 | 0.979 | > 5000
24 | 23132-87 (stomach, adherent) | 0.986 | > 2000 | 0.986 | > 5000
25 | IA-LM (large cell lung carcinoma, adherent) | 0.971 | > 2000 | 0.96 | > 5000

Row | Cell Line | AUC (PD-173074) | IC50 (PD-173074) [nM] | AUC (SB590885) | IC50 (SB590885) [nM]
26 | H513 (mesothelioma, semi-adherent) | 0.985 | > 2000 | 0.985 | > 5000
27 | PC-3 (prostate, adherent) | 0.975 | > 2000 | 0.964 | > 5000
28 | SNU-81 (large intestine, adherent) | 0.978 | > 2000 | 0.974 | > 5000
29 | H2869 (mesothelioma, adherent) | 0.977 | > 2000 | 0.984 | > 5000
30 | T-T (oesophagus, adherent) | 0.987 | > 2000 | 0.966 | > 5000
31 | NCI-H508 (large intestine, semi-adherent) | 0.957 | > 2000 | 0.969 | > 5000
32 | LC-1-sq (lung squamous cell carcinoma, adherent) | 0.956 | > 2000 | 0.975 | > 5000
33 | SNU-C5 (large intestine, adherent) | 0.986 | > 2000 | 0.962 | > 5000
34 | CHP-134 (neuroblastoma, suspension) | 0.877 | > 2000 | 0.921 | > 5000
35 | KP-1N (pancreas, adherent) | 0.982 | > 2000 | 0.956 | > 5000
36 | SK-MG-1 (glioma, adherent) | 0.984 | > 2000 | 0.956 | > 5000
37 | NCI-H3122 (lung adenocarcinoma, adherent) | 0.985 | > 2000 | 0.923 | > 5000
38 | NCI-H1993 (lung adenocarcinoma, adherent) | 0.969 | > 2000 | 0.983 | > 5000
39 | C3A (liver, adherent) | 0.986 | > 2000 | 0.988 | > 5000
40 | LOU-NH91 (lung squamous cell carcinoma, adherent) | 0.986 | > 2000 | 0.986 | > 5000
41 | OV-17R (ovary, adherent) | 0.961 | > 2000 | 0.981 | > 5000
42 | BxPC-3 (pancreas, adherent) | 0.983 | > 2000 | 0.984 | > 5000
43 | MEL-HO (melanoma, adherent) | 0.961 | > 2000 | 0.311 | 91.4
44 | OV-56 (ovary, adherent) | 0.976 | > 2000 | 0.986 | > 5000
45 | CML-T1 (chronic myeloid leukaemia, suspension) | 0.952 | > 2000 | 0.95 | > 5000
46 | EFO-27 (ovary, adherent) | 0.948 | > 2000 | 0.981 | > 5000
47 | C-4-I (cervix, adherent) | 0.986 | > 2000 | 0.986 | > 5000
48 | NCI-H596 (lung adenocarcinoma, adherent) | 0.953 | > 2000 | 0.979 | > 5000
49 | U031 (kidney, adherent) | 0.95 | > 2000 | 0.981 | > 5000
